From PubChem BioAssay AID504332 (National Center for Advancing Translational Sciences (NCATS), 2011)
Hit rate of the full screen: of about 350,000 compounds, about 31,000 (8.9%) were called active. The shares of active, inactive and inconclusive entries below differ from those in the screen. The call rests on the fitted dose curve; in most records, active means well fitted inhibition curve with a large enough effect; inconclusive means small, poorly fitted or top-dose-only effect; inactive means no such curve, though single readings can be large or run the other way. Where the call is inconclusive, the potency comes from a doubtful curve fit.

Molecular target: Histone-lysine N-methyltransferase EHMT2 (Homo sapiens) (UniProt Q96KQ7)
Assay: qHTS Assay for Inhibitors of Histone Lysine Methyltransferase G9a; further: nearly all actives have a fitted effect of over 75% in size
Conditions: G9a H3K9 monomethylation, AlphaScreen, 2 h; activity, negative = inhibition: at 59 µM (top of the series) unless noted
Summary of the method: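 G9a (20 nM) was preincubated 15 min with compound, then reacted 2 h at room temperature with 500 nM biotin-H3K9 peptide and 20 µM SAM. Monomethyl-H3K9 detected by AlphaScreen using anti-H3K9me1 antibody.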
On the % scale 0 is the no-effect control and ±100 the full control effect; potency means the concentration at half of the fitted maximal effect; tags describe the fitted curve by direction and shape.

UniProt Q96KQ7, sequence (Q96KQ7 whole entry, looked up): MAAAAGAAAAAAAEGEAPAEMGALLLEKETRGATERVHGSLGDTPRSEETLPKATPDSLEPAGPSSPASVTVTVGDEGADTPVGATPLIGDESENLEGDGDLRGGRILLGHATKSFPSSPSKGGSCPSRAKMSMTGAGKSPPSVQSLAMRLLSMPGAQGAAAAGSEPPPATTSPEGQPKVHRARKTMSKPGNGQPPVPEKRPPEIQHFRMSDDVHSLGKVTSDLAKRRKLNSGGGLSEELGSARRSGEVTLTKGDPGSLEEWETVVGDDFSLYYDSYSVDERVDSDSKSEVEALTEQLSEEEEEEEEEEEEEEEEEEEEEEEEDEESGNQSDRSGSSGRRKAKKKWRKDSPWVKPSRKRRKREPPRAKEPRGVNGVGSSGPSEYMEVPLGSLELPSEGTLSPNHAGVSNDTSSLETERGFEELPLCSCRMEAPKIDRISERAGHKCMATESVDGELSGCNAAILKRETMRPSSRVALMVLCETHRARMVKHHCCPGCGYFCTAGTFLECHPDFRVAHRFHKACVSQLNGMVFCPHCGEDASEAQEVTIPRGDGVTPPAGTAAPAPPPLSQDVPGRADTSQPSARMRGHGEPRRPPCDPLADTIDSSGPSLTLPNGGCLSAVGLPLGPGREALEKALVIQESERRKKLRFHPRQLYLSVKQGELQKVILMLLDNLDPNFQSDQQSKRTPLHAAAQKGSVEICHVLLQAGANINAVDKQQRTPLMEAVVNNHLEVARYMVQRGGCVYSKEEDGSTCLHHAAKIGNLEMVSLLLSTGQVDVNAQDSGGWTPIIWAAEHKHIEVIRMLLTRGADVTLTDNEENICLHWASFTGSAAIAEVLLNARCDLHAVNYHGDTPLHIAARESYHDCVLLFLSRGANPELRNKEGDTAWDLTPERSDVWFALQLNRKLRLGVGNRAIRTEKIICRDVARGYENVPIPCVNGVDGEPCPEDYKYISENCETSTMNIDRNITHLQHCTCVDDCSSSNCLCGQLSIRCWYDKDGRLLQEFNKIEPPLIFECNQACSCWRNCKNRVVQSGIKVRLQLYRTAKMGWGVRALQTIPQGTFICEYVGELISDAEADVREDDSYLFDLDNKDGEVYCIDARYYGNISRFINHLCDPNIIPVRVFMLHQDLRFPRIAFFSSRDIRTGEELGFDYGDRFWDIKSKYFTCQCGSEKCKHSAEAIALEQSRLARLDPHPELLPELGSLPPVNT

SMILES | Potency | activity, negative = inhibition
COc1cccc(NC(=O)c2ccc3[nH]c(C)cc(=O)c3c2)c1 | inconclusive: 3.55 µM [inhibitor, partial curve, poor fit] | –
COc1ccc(Cn2nnnc2C(c2ccc(F)cc2)N2CCN(C3CCCC3)CC2)cc1 (stereo not given) | inactive | –
Fc1ccccc1Cn1c2[n+](c3ccc(C(F)(F)F)cc31)CCCCC2 | inconclusive: 44.7 µM [inhibitor, partial curve, poor fit] | –
COc1cc(NC(=S)Nc2ccc3c(c2)OCCO3)cc(OC)c1OC | inconclusive: 89.1 µM [inhibitor, partial curve, poor fit] | –
CCCc1cc(=O)oc2cc(C)c3c(C(C)(C)C)coc3c12 | inactive | –
COc1ccc(-n2nnnc2SCC(=O)Nc2ccc3c(c2)OCCO3)c(OC)c1 | inconclusive: 0.158 µM [inhibitor, full curve, poor fit] | –
COc1ccc(-c2noc(-c3ccc(NC4CCCCC4)c([N+](=O)[O-])c3)n2)cc1 | inconclusive: 39.8 µM [inhibitor, partial curve, poor fit] | –
OC(CN1CCN(c2ccccc2)CC1)c1c[nH]c2ccccc12 (stereo not given) | inconclusive: 89.1 µM [inhibitor, single point] | –
CCOC(=O)C1CCCN(C/C=C/c2ccccc2)C1 (stereo not given) | active: 39.8 µM | –
O=C(c1ccco1)N1CCN(CC(O)COc2ccc3oc4ccccc4c3c2)CC1 (stereo not given) | inconclusive: 50.1 µM [inhibitor, partial curve] | –
Cc1c(CC(=O)O)c(=O)oc2cc(OCc3nn[nH]n3)ccc12 | inconclusive: 25.1 µM [inhibitor, partial curve, poor fit] | –
COC(=O)c1cc(NS(=O)(=O)c2ccc(NCc3cccnc3)c([N+](=O)[O-])c2)cc(C(=O)OC)c1 | inactive | –
Nc1ccccc1N1CCN(C(=O)c2ccccc2)CC1 | inconclusive: 39.8 µM [inhibitor, single point] | –
Cc1ccc(O)c(-c2cc(C(=O)NCc3ccncc3)[nH]n2)c1 | inconclusive: 39.8 µM [inhibitor, single point] | –
COc1cccc(CCc2nnc(N)s2)c1 | active: 79.4 µM | –
Cc1[nH]n(-c2ccccc2)c(=O)c1/C=C1/C=c2ccccc2=N1 | inconclusive: 79.4 µM [inhibitor, partial curve, poor fit] | –
CC1(C)Cc2c(c(N3CCCC3)[nH]c(=S)c2C#N)CO1 | inconclusive: 3.55 µM [inhibitor, single point] | –
CCc1sc(C(=O)Nc2ncccc2C)cc1C | inconclusive: 79.4 µM [inhibitor, partial curve, poor fit] | –
CCOC(=O)c1c(C)c(-c2ccccc2)n(CC(=O)NCCC(C)C)c1C | inactive | –
O=C(COc1ccc(Cl)cc1)NNC(=S)NCc1ccccc1 | active: 31.6 µM | –
CC(C)(C)NC(=S)NNC(=O)c1ccncc1 | inconclusive: 70.8 µM [inhibitor, single point] | –
O=C(Nc1ccccc1)c1cccc(N2C(=O)CCC2=O)c1 | inconclusive: 35.5 µM [inhibitor, single point] | –
COc1ccc(CNC(=O)CN2C(=O)CSc3ccc(S(=O)(=O)N4CCCCC4)cc32)cc1 | inactive | –
Cc1ccc(C)c(CSc2nnc([C@@H](N)C(C)C)o2)c1 | inconclusive: 56.2 µM [inhibitor, partial curve] | –

SMILES | Potency | activity, negative = inhibition
C=CCN(N=Nc1cccc([N+](=O)[O-])c1)c1cccc([N+](=O)[O-])c1 | inconclusive: 12.6 µM [inhibitor, partial curve, poor fit] | –
CN1CCC(N(C)C(=O)COc2ccc(S(=O)(=O)N3CCOCC3)cc2)CC1 | inconclusive: 39.8 µM [inhibitor, partial curve, poor fit] | –
O=C(COC(=O)CCc1nc2ccccc2s1)Nc1ccc(Cl)cn1 | inconclusive: 79.4 µM [inhibitor, single point] | –
O=C(/C=C/c1ccoc1)c1ccccc1O | inconclusive: 35.5 µM [inhibitor, single point] | –
COc1ccc(N2CCN(C(=O)CSc3ccc(C)cc3)CC2)cc1 | inconclusive: 15.8 µM [inhibitor, partial curve, poor fit] | –
CCn1c(=O)c(=O)[nH]c2cc(C(=O)NC3CCCc4ccccc43)ccc21 (stereo not given) | inconclusive: 2.51 µM [inhibitor, partial curve, poor fit] | –
CCOc1ccc(NS(=O)(=O)c2ccc3[nH]cc(C(=O)N4CCCCCC4)c(=O)c3c2)cc1 | inactive | –
CCC1Oc2ccc(C)cc2N(CC(=O)NCCCN2CCCCC2C)C1=O (stereo not given) | inconclusive: 1.78 µM [inhibitor, full curve, poor fit] | –
O=C(N=C1SC2CS(=O)(=O)CC2N1Cc1ccc(Cl)cc1)C1CC1 (stereo not given) | inactive | –
O=C(NC(=S)NCc1ccco1)c1cccc(Cl)c1 | active: 70.8 µM | –
COc1cccc(CN2C(=O)C3(SCC(=O)N3c3ccc(C(C)C)cc3)c3ccccc32)c1 (stereo not given) | inactive | –
CCCN(CCC)CCNC(=O)c1cc2c(=O)n(C)c3ccccc3c2n1C | inconclusive: 25.1 µM [inhibitor, single point] | –
CCCCCCCCn1cnc2c(N)c(C)c(C)cc21 | – | inactive: -14.8% [at 0.0925 µM]
O=C(O)/C=C/C(=O)Nc1ccc(OC(F)F)cc1 | inactive | –
COc1ccc2nc(NCc3cccnc3)sc2c1 | inconclusive: 70.8 µM [inhibitor, partial curve] | –
Cc1ccc(-c2nc(CS(=O)CC(=O)NC3CCCCC3)c(C)o2)cc1 (stereo not given) | inconclusive: 79.4 µM [inhibitor, single point] | –
Clc1cccc(OCCN2CCNCC2)c1 | active: 14.1 µM | –
O=C(O)c1ccc(Nc2ncnc3c2cnn3Cc2ccccc2)cc1 | active: 31.6 µM | –
N#Cc1nccnc1S(=O)(=O)c1cccs1 | active: 3.98 µM | –
Cc1ccc(S(=O)(=O)N2CCN(C(=O)c3cc4c(s3)CCCC4)CC2)c(C)c1 | inconclusive: 6.31 µM [inhibitor, single point] | –
CC(C)Cn1c(N)c(C(=O)CCl)c(=O)n(C)c1=O | inconclusive: 89.1 µM [inhibitor, single point] | –
CCN(CCCNC(=O)Cn1ncc2c(=O)oc3ccccc3c21)c1cccc(C)c1 | inconclusive: 89.1 µM [inhibitor, single point] | –
C=CCN=c1scc(-c2ccccc2)n1/N=C/c1ccccn1 | inconclusive: 35.5 µM [inhibitor, single point] | –
Cc1cc(C(=O)COC(=O)C2CCN(C(=O)c3ccc(Cl)cc3)CC2)c(C)n1CC1CCCO1 (stereo not given) | inconclusive: 44.7 µM [inhibitor, partial curve] | –

SMILES | Potency | activity, negative = inhibition
COc1cc(-c2cc(C(=O)Nc3cc(S(=O)(=O)N4CCOCC4)ccc3C)c3ccccc3n2)cc(OC)c1OC | inconclusive: 79.4 µM [inhibitor, partial curve, poor fit] | –
CCOC(=O)c1c(NC(=O)c2cc3nc(-c4ccccc4)cc(C(F)(F)F)n3n2)sc2c1CCC(C)C2 (stereo not given) | inactive | –
CCOc1ccc(Nc2nc(NCC(=O)O)nc(N)c2[N+](=O)[O-])cc1 | inconclusive: 89.1 µM [inhibitor, single point] | –
CCN1CCc2nc(NC(=O)Cc3ccc4c(c3)OCCO4)sc2C1 | inconclusive: 39.8 µM [inhibitor, single point] | –
CCOC(=O)CSc1nnc(-c2ccc3ncccc3c2)n1C | inactive | –
Oc1c(Br)cc(C2N=C(c3ccccc3Cl)NO2)cc1Br (stereo not given) | – | inactive: 36.3% [at 0.501 µM]
CCc1nn(CC(=O)NCc2ccc(OC)c(OC)c2)c(=O)c2cc3sc(C)cc3n12 | inactive | –
CCCN1C(=O)/C(=C/c2ccc(C)o2)SC1=Nc1ccc(OCC)cc1 | inconclusive: 3.98 µM [inhibitor, partial curve, poor fit] | –
COc1cc(O)c2c(=O)cc(-c3ccc(OC)c(-c4c(O)cc(O)c5c(=O)cc(-c6ccc(O)cc6)oc45)c3)oc2c1 | – | inactive: 6.69% [at 2.33 µM]
CCN(CC)S(=O)(=O)c1ccc(NC(=S)NC(=O)CC(C)C)cc1 | inactive | –
CCc1ccc(-c2cn3c(n2)SCC3)cc1 | active: 44.7 µM | –
CN(C)c1ccc(C(=O)Nc2cccc(-c3nc4cccnc4s3)c2)cc1 | inactive | –
O=C(NCCc1ccc(F)cc1)c1coc(=O)c(Br)c1 | inconclusive: 0.708 µM [inhibitor, partial curve, poor fit] | –
CCS(=O)(=O)N1CCN(Cc2c[nH]c3ccccc23)CC1 | active: 14.1 µM | –
C=CCOC(=O)C(C#N)c1nc2ccccc2nc1N1CCCC1 (stereo not given) | – | inconclusive: -69.1% [inhibitor]
N/C(=N\O)c1ccc([N+](=O)[O-])s1 | inconclusive: 25.1 µM [inhibitor, partial curve, poor fit] | –
O=C(O)c1cc(Br)ccn1 | active: 15.8 µM | –
CC1=NC(=O)C(N=Nc2cccc(O)c2)N1c1ccccc1 (stereo not given) | inconclusive: 5.62 µM [inhibitor, partial curve, poor fit] | –
Cc1cc2cc(CCNC(=O)c3ccc(S(=O)(=O)N4CCOCC4)cc3)c(=O)[nH]c2cc1C | – | inactive: 29.4% [at 12.7 µM]
CCN(CC(=O)Nc1ccccc1C(F)(F)F)C(=O)C1CSC2(C)CCC(=O)N12 (stereo not given) | – | inactive: 5.84% [at 12.7 µM]
Nc1c(S(=O)(=O)c2ccccc2)c2nc3ccccc3nc2n1CCN1CCOCC1 | inactive | –
COc1ccccc1N1CCN(CCc2n[nH]c(=S)n2-c2ccccc2)CC1 | inconclusive: 0.891 µM [inhibitor, partial curve, poor fit] | –
